Source: PMC4336329 (PLoS ONE, 2015)
In all, about 310,000 compounds went through this assay and about 2,200 (0.71%) showed an effect of 50% or more. The effect is printed as a negative number. This is one part of the list.

molecular target: human ether-à-go-go-related gene (hERG) potassium channel (human, UniProt Q12809); assay: primary screen, population patch clamp on CHO cells stably expressing hERG
Sequence (Q12809 whole entry, looked up): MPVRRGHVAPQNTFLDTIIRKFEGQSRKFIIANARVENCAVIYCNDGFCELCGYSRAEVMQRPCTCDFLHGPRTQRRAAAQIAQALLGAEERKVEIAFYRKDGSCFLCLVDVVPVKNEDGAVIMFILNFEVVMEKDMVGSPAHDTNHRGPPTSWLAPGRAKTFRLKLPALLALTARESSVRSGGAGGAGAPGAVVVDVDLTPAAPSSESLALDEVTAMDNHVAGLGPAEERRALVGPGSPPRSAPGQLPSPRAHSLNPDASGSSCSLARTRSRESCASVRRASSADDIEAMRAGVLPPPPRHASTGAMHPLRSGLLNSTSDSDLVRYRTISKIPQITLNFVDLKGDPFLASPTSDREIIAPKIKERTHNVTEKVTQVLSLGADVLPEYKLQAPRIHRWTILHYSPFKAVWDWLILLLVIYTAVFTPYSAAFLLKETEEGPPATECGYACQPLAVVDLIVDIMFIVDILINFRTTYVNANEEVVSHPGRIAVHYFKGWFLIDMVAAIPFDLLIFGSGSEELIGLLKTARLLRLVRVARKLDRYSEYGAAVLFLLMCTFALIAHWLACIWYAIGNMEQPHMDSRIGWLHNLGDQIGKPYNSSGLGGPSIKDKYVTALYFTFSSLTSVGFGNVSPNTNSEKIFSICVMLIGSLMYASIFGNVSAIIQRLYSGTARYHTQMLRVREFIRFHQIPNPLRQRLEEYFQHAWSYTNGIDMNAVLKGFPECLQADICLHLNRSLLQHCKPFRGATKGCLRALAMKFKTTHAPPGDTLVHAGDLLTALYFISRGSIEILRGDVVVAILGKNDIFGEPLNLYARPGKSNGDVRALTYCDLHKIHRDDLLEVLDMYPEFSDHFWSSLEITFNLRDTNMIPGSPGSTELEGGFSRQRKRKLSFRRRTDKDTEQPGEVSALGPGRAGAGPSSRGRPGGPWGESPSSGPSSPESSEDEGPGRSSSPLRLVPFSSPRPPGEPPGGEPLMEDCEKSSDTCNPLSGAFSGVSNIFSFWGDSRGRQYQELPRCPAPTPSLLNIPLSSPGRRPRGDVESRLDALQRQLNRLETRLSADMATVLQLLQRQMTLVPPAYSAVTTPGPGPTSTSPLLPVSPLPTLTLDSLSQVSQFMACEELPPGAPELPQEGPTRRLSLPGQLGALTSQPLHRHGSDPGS

Compound	hERG current change (%, negative = inhibition) at 1uM [%]
O=C(CN1CCCCC1)Nc1cc(S(=O)(=O)N2CCOCC2)ccc1N1CCCC1	6.07
COc1ccc(/C=N/NC(=O)c2cccnc2)cc1COc1ccc([N+](=O)[O-])cc1	8.43
Cc1cccc(C)c1NC(=O)CSc1nnc(-c2ccccc2)n1Cc1ccc2c(c1)OCO2	3.17
CCOC(=O)c1cnc(-c2ccccc2)[nH]c1=O	8.89
CC(Sc1nnc(C(C)N(C)C)n1-c1ccc(Cl)cc1)C(=O)Nc1ccc2c(c1)OCO2 (stereo not shown)	11.6
CC1CC(C)CN(C(=O)COC(=O)c2cccc([N+](=O)[O-])c2)C1 (stereo not shown)	10.1
COc1ccc(NC(=O)c2sc3ncn(CC(=O)N4CCN(c5ccccn5)CC4)c(=O)c3c2C)c(OC)c1	14.9
CC(Nc1c([N+](=O)[O-])c(=O)oc2ccccc12)C(Cl)c1ccccc1 (stereo not shown)	7.05
N#CCCN(C(=O)CCl)c1cccc(Cl)c1	9.88
Cc1csc(NC(=O)CSc2nccn2C)n1	17.6
O=C(NCc1ccco1)c1ccccc1NS(=O)(=O)c1cccs1	9.76
COc1ccc(NC(=O)/C(Cl)=C(/Cl)S(=O)Cc2ccc(C)cc2)cn1 (stereo not shown)	6.6
Oc1ccc(Oc2ccc(Oc3ccc(O)cc3)cc2)cc1	11
O=C(CSc1nnc(CNC(=O)c2ccco2)o1)Nc1ccccc1C(F)(F)F	23.1
Cc1nn(-c2ccccc2)c(Cl)c1/C=N\NC(=O)c1cncc(Br)c1	5
COc1ccc(Sc2nc3ccccc3n3c(C(F)(F)F)nnc23)cc1	12.8
O=C(NCc1nc2ccccc2[nH]1)C1=C[C@H](C2CC2)C[C@H](OCCCCO)O1	2.86
Cc1cc(C)c(S(=O)(=O)N2CCN(c3ccc([N+](=O)[O-])c(NCC4CCCO4)c3)CC2)c(C)c1 (stereo not shown)	21.8
CC(C)CN=C(NS(=O)(=O)c1ccccc1)C(Cl)(Cl)Cl	12.7
CN(CCC1CCOCC1)C(=O)CC1C(=O)NCCN1Cc1cccc(F)c1 (stereo not shown)	2.8
CCN(CC)CCC(=O)N1c2ccccc2CCc2ccc(NC(=O)OC(C)C)cc21	-5.39
COc1ccc(OCCSc2nc(N)cc(=O)[nH]2)cc1	2.03

Compound	hERG current change (%, negative = inhibition) at 1uM [%]
COc1ccc(OC)c(NC(=O)c2cc3ccccc3cc2OC)c1	4.18
CCn1c(SCC(=O)c2cccs2)nnc1-c1ccco1	10.3
CC(C)(C)NCCOc1ccc(Br)cc1.Cl	6.12
c1ccc(-c2cc(CSc3nc4ccccc4[nH]3)on2)cc1	13.3
CC1(C)CC(=O)C=C(NCCN2CCN(C(=S)Nc3ccc(F)cc3)CC2)C1	10.3
O=C(Nc1ccc(Cl)cc1)c1sccc1-n1cccc1	5.81
Cn1c(CNC(=O)c2ccccc2F)nnc1SCC(=O)Nc1nncs1	8.22
CCc1ccc2c(c1)/C(=N/N(C)C(=S)NC)C(=O)N2	7.89
COc1ccc(S(=O)(=O)N(CC(=O)NC2CCCC2)c2ccccc2OC)cc1	11
COc1cc(/C=C2\N=C(C)OC2=O)cc(Cl)c1OC(C)=O	15.9
Cc1ccc(C)c(-n2cc[nH]c2=S)c1	11
Cc1ccc(NC(=O)CN(c2ccc(Cl)cc2)S(=O)(=O)c2cc([N+](=O)[O-])ccc2Cl)cc1	7.07
CCOC(=O)Cn1c(=O)c2c(nc(N3CCCCC3)n2Cc2ccccc2)n(C)c1=O	0.644
COc1cc(C=O)ccc1OCC(=O)Nc1ccccc1N1CCOCC1	20
Cc1nccn1CCCNC(=O)C1CCC(=O)N(Cc2ccccc2F)C1 (stereo not shown)	9.89
CCOC(=O)CCC(=O)N1CCOCCOCCN(C(=O)CCC(=O)OCC)CCOCC1	5.29
CCOc1ccccc1CNC(=O)c1c([N+](=O)[O-])c(C)nn1C	0.0727
COc1ccccc1NC(=O)CNC(=O)Cn1c(C)cc2ccccc2c1=O	14.1
COc1ccc(/C=N/NC(=O)c2nn(-c3ccccc3)c(=O)c3c(N)scc23)cc1	4.99
c1ccc(N2CCN(CC3CCCCC3)CC2)cc1	15.4
O=C(NCc1ccccc1)C(c1ccccc1)N(C(=O)c1csnn1)c1ccc(F)cc1 (stereo not shown)	9.78
COC(=O)c1sc(=S)n(-c2ccccc2)c1N	6.66

Compound	hERG current change (%, negative = inhibition) at 1uM [%]
COc1ccc(Cc2nnc(NC(=O)c3cccs3)s2)cc1OC	2.14
COc1ccc(/C(N)=N/OC(=O)CSc2ccccc2)cc1	5.01
CC(C)c1ccc(NC2CCCN(C(=O)c3cscn3)C2)cc1 (stereo not shown)	12.1
CC(=O)N1CCN(C(=O)C2(NC(=O)Nc3cccc(F)c3)CCCCC2)CC1	15
CSCCC(NC(=O)c1ccccc1Cl)C(=O)NNC(=O)c1ccncc1 (stereo not shown)	-7.14
COc1cccc(CN2CCC(C(=O)N3CCN(c4ccccc4F)CC3)CC2)c1	-20.8
Cc1nnc(SCc2ccc(CC(=O)O)cc2)o1	6.6
Fc1cc(Br)ccc1NC(=S)NCCc1ccccc1	4.19
COc1ccc(-c2csc(N3CCC(C(N)=O)(N4CCCCC4)CC3)n2)cc1	5.58
N=c1c(C(=O)NCC2CCCO2)cc2c(=O)n3ccccc3nc2n1Cc1cccnc1 (stereo not shown)	-34.7
COC(OC)C1(C)C(C#N)=C(N)Oc2c1c(=O)oc1ccccc21 (stereo not shown)	8.87
CCc1nnc(SCC(=O)Nc2nccs2)n1CC	12.4
CC1=C(C(=O)OCc2ccccc2)C(c2ccccc2)NC(=O)N1CCCCCC(=O)O (stereo not shown)	8.36
Cc1ccc(N2CCN(C(=O)Nc3cccc([N+](=O)[O-])c3)CC2C)cc1 (stereo not shown)	5.32
Cc1coc2c1c(C)cc1oc(=O)c(Cc3ccccc3)c(C)c12	15
COc1ccc(NC(=O)c2ccco2)cn1	17.8
Cc1cc(NC(=O)c2ccc(C)c(C)c2)no1	11
CC1(C)CC(=O)N(CC(=O)O)c2ccccc2S1(=O)=O	2.76
O=C(CNS(=O)(=O)c1cccc(C(F)(F)F)c1)Nc1ccccc1F	-2.49
COc1ccc(CN2CCN(Cc3cn(C)nc3-c3ccccc3)CC2CCO)c(C)c1C (stereo not shown)	-34.3
CCn1c(-c2ccccc2Cl)nn(CC(=O)Nc2ccccc2C)c1=S	3.39
CCS(=O)(=O)C(=C(Nc1ccc(OC)cc1)Nc1ccc(OC)cc1)S(=O)(=O)CC	5.46

Compound	hERG current change (%, negative = inhibition) at 1uM [%]
O=S(=O)(NCCc1ccccc1)c1ccc(F)cc1	4.42
c1ccc(Sc2ncnc3c2oc2ccccc23)cc1	20.2
NC(=O)C1CC(=O)N(c2ccc(OCc3c(Cl)cccc3Cl)cc2)C1 (stereo not shown)	19.2
OCCC1CN(Cc2ccc3cc(Cl)ccc3n2)CCN1Cc1ccsc1 (stereo not shown)	-42.1
CCOc1ccc(C(=O)CCC(=O)Nc2ccc(C)cn2)cc1	-5.09
CCOC(=O)c1ccccc1N/C=C1\CCCC1=O	5.17
COc1ccc(-c2csc3ncnc(N4CCN(S(=O)(=O)c5ccc(C(C)=O)cc5)CC4)c23)cc1	-9.22
CC(C)c1ccc2c(c1)CCC1C(C)(CN)CCCC21C.O=C(O)c1ccccc1 (stereo not shown)	6.01
Cc1oc(-c2ccccc2F)nc1CS(=O)(=O)CC(=O)N1CCc2ccccc21	12.4
CCSc1nnc(N2C(=O)c3ccc(C(=O)c4ccc(C(=O)O)cc4)cc3C2=O)s1	10.9
COc1ccc(NC(=O)c2cc3c(CO)cnc(C)c3oc2=Nc2cccc(F)c2)c(OC)c1	12.8
CCOC(=O)c1c(CN(CC)CC)oc2ccc(OC)cc12	-25.8
O=C(COC(=O)CNS(=O)(=O)c1c(Cl)cccc1Cl)Nc1cccnc1Cl	1.04
CC1CCc2[nH]c3ccc(C(=O)Nc4ccc(C(=O)N(C)C)cc4)cc3c2C1 (stereo not shown)	20.4
Cc1cc(=O)oc2cc(OC(C)C(=O)NC3CCN(Cc4ccccc4)CC3)ccc12 (stereo not shown)	-52.6
CC1CCN(CCCCOc2ccc(C(C)(C)C)cc2)CC1.O=C(O)C(=O)O	-3.74
COc1ccc(NC(=O)CSc2c3c(nc4ccccc24)CCCC3)c(OC)c1	5.62
O=C(CCc1nnc(-c2ccccc2)o1)NCc1c(F)cccc1F	10
COc1ccc(C(CC(=O)N2CCCC2)c2ccc(F)cc2)cc1 (stereo not shown)	7.68
Cc1ccc(NS(=O)(=O)c2ccc(C(=O)OCC(=O)NCC3CCCO3)cc2)cc1 (stereo not shown)	10.7
COc1ccc(NC(=O)c2cc3n(n2)C(C(F)(F)F)CC(c2ccco2)N3)cc1 (stereo not shown)	8.02
CC1CCN(S(=O)(=O)c2ccc3c(c2)N(CC(=O)NCc2cccnc2)C(=O)CS3)CC1	2.67
